# Test results from PubChem BioAssay AID720708 (National Center for Advancing Translational Sciences (NCATS), 2013).
# Screen size: about 360,000 compounds; about 660 (0.18%) were called active. This list was built around the results that the source calls inconclusive (neither active nor inactive); the mix of calls is not that of the screen. Calls follow the shape of the dose curve; as a rule, active = well fitted inhibition curve with a large enough effect; inconclusive = small, poorly fitted or top-dose-only effect; inactive = no such curve, though single readings can be large or run the other way. No potency is given beside an inconclusive call; the fits are too rough.
# Target: Rap guanine nucleotide exchange factor 4 (Homo sapiens) (UniProt Q8WZA2)
# Sequence of UniProt Q8WZA2 (Q8WZA2 whole entry, looked up): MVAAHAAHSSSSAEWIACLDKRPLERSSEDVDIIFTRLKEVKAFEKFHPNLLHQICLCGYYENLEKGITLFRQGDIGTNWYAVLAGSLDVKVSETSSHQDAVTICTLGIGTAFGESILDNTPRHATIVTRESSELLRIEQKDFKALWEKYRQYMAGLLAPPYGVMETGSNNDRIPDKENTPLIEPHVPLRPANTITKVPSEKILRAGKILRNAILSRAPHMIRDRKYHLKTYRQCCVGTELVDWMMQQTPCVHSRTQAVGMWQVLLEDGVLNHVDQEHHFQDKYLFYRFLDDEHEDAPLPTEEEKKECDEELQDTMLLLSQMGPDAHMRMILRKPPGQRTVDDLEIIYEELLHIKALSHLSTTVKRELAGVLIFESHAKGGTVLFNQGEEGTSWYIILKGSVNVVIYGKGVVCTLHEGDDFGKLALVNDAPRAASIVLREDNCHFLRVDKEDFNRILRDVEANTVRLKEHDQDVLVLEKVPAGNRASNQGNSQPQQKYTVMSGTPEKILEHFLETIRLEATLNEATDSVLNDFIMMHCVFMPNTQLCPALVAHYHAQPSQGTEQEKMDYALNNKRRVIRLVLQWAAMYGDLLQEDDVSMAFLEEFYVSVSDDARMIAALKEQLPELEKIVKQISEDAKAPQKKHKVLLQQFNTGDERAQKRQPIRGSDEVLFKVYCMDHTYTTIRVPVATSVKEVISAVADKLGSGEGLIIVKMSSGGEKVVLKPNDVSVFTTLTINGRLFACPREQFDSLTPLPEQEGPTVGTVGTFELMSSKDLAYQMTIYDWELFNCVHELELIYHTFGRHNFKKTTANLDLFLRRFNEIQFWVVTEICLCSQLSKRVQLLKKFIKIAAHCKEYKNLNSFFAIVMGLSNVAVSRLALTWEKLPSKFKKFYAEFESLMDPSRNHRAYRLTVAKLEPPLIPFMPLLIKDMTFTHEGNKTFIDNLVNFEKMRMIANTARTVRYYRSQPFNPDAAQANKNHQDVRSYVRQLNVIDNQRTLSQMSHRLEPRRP
# Experiment: qHTS for Antagonist of cAMP-regulated guanine nucleotide exchange factor 2 (EPAC2): primary screen; also: nearly all actives have a fitted effect of over 45% in size
# Settings: EPAC2 GEF exchange of Rap1B-BODIPY-GDP, fluorescence; series mostly up to 114 µM
# Potency is read from the fitted curve at half-maximal effect; tags tell the direction and shape of the fitted curve.
row,SMILES,Potency
1,CCCSC1=C(C#N)C(c2ccccc2C)C(C(=O)OC)C(=O)N1 (configuration not stated),"inconclusive [inhibitor, single point]"
2,C=CCSc1nc2c(C(=O)OCC)nnn2c2ccccc12,"inconclusive [inhibitor, single point]"
3,O=C(COc1ccc(F)cc1Br)NCC1(N2CCOCC2)CCCCC1,"inconclusive [inhibitor, partial curve]"
4,Fc1cccc(/C=C2\CCCC3=C2NC(=S)NC3c2cccc(F)c2)c1 (configuration not stated),inactive
5,COC(=O)c1sc(C(F)(F)F)c(-c2ccccc2)c1S(=O)(=O)N1CCCC1,"inconclusive [inhibitor, partial curve]"
6,C[C@@H](c1ccccc1)N1C[C@H]2CCCN2c2cc(Br)ccc2S1(=O)=O,"inconclusive [inhibitor, full curve]"
7,COc1ccc(C=O)cc1CN1CCCN(Cc2ccc(Cl)cc2)S1(=O)=O,inactive
8,O=C1C(O)=C(O)C(=O)c2ccccc21,"inconclusive [inhibitor, partial curve]"
9,CCCCCCCC/C=C\CCCCCCCC(=O)NCCc1ccc(O)c(O)c1,inactive
10,O=C(c1cccs1)N1CCN(Cc2ccccc2)CC1,inactive
11,O[C@H]1C[C@H](c2ccccc2)N(Cc2cccs2)C[C@@H]1n1cc(C2CC2)nn1,"inconclusive [inhibitor, partial curve, poor fit]"
12,CCc1cc2c(-c3ccccc3)cc(=O)oc2cc1OCC(=O)NCC1CCC(C(=O)O)CC1 (configuration not stated),"inconclusive [inhibitor, partial curve]"
13,CC1CCN(S(=O)(=O)c2ccc3c(c2)N(CC(=O)NCCN2C(C)CCCC2C)C(=O)CS3)CC1 (configuration not stated),inactive
14,COc1cc(/C=C2\C(=N)N3N=C(C)SC3=NC2=O)cc(OC)c1OCCOc1ccccc1C,inactive
15,CC(=O)C1=C(C)N(CC2CC2)C(=O)N[C@H]1c1ccc(Br)cc1,"inconclusive [inhibitor, full curve]"
16,Cc1ccc(S(=O)(=O)/N=C2/NC(=O)/C(=C/c3ccc(Br)o3)S2)cc1,inactive
17,C=CCO/N=C(/C)c1ccc(Oc2cnccn2)cc1,inactive
18,COc1ccc(/C=C/C2=NC(=C\N(C)C)/C(=O)O2)cc1,inactive
19,CC1(C(=O)NCC2CCCCC2)CCN1C(=O)Cc1ccc(-c2ccccc2)cc1 (configuration not stated),"inconclusive [inhibitor, full curve, poor fit]"
20,Cc1ccc(C(=O)N/N=C/c2ccc([N+](=O)[O-])s2)cc1,inactive
21,O=C(Nc1ccccc1C(=O)O)c1cccc(S(=O)(=O)Nc2ccc(Br)cc2)c1,"inconclusive [inhibitor, partial curve]"
22,N#CC1=C(Nc2ccccc2Cl)SC(c2ccccc2O)NC1=O (configuration not stated),inactive
23,Cc1ccc2cccc(OC(=O)c3c(F)cccc3Cl)c2n1,"inconclusive [inhibitor, partial curve, poor fit]"
24,O=CN(c1ccccc1)c1ccc2ccccc2c1,"inconclusive [inhibitor, partial curve]"

row,SMILES,Potency
1,COc1ccc(CC(=O)N/N=C\c2cc(Br)c(O)c(Br)c2)cc1,inactive
2,c1ccc(CNc2ncnc3ccccc23)cc1,"inconclusive [inhibitor, single point]"
3,c1ccc2nc3c(ccc4ccccc43)cc2c1,"inconclusive [inhibitor, single point]"
4,Cc1cc(OCC(=O)Nc2nccs2)c2c(C)c(C)c(=O)oc2c1,"inconclusive [inhibitor, partial curve]"
5,COC(=O)C(CC(=O)c1cccc(OC)c1)c1ccc(F)cc1 (configuration not stated),"inconclusive [inhibitor, partial curve]"
6,CC1CCCC(C)N1C(=O)COC(=O)COc1ccc(C#N)cc1 (configuration not stated),inactive
7,Cc1ccccc1CN(C)CC(=O)Nc1c(C)cccc1C(C)C,"inconclusive [inhibitor, partial curve]"
8,O=C(CC(=O)NCc1ccc(Cl)cc1)NCc1ccc(Cl)cc1,"inconclusive [inhibitor, single point]"
9,CCOc1cc(/C=C2/SC(=S)N(CC(=O)O)C2=O)ccc1OC(=O)c1cccs1,"inconclusive [inhibitor, partial curve]"
10,CCOc1ccccc1C(=O)Nc1nccs1,inactive
11,Cc1ccc(P(=O)(c2ccc(C)cc2)[C@@H](NC(c2ccccc2)c2ccccc2)c2ccccc2)cc1,"inconclusive [inhibitor, full curve]"
12,CCCc1nc(SCC(=O)c2ccc(F)cc2)c2ccccc2n1,inactive
13,CC(C)Oc1nc(-c2ccccc2Cl)nc2ccccc12,"inconclusive [inhibitor, partial curve]"
14,CCCc1c(-c2cccc(F)c2)ncn1CCc1ccccc1OC,"inconclusive [inhibitor, partial curve]"
15,CCOC(=O)C1CCCCN1Cc1cccc(Oc2ccccc2)c1 (configuration not stated),active: 39.8 µM
16,O=C(C1CC1)N1CCCC(c2ccc(Cl)cc2)=N1,"inconclusive [inhibitor, partial curve]"
17,Cc1nn(-c2ccccc2)c2c1P(=O)(O)/C(=C1\N(C)c3ccccc3C1(C)C)C=N2,inactive
18,CCC1(C)Cc2[nH]c(=O)c(C#N)cc2CO1 (configuration not stated),"inconclusive [inhibitor, full curve, poor fit]"
19,O=C(O)CSc1nc(-c2ccc(Cl)cc2)nc2c1oc1ccccc12,"inconclusive [inhibitor, single point]"
20,COc1ccc(C(=O)Nc2ccc3c(c2)n(C)c(=O)n3C)cc1OC,"inconclusive [inhibitor, single point]"
21,N=c1n(Cc2ccccc2)c2ccccc2n1Cc1ccccc1,inactive
22,C/C(=N\NC(=S)NCc1ccccc1)c1ccc2ccccc2c1OC(F)F,"inconclusive [inhibitor, single point]"
23,O=C(CN1C(=O)NC2(CCCC2)C1=O)Nc1cc(C(F)(F)F)ccc1N1CCOCC1,"inconclusive [inhibitor, partial curve, poor fit]"
24,Cc1cccc(NCc2cccc3ccccc23)n1,"inconclusive [inhibitor, partial curve]"

row,SMILES,Potency
1,Cc1cc(C)c(S(=O)(=O)Cc2ccccc2)c(OC(C)C)n1,"inconclusive [inhibitor, partial curve]"
2,O=C1C=C(c2ccccc2Oc2ccccc2)C[C@@H](c2ccc(F)cc2)C1,"inconclusive [inhibitor, full curve]"
3,Cc1ccc2oc(=O)c(/C=C(\O)CC(C)C)nc2c1,inactive
4,N/C(=N\OC(=O)c1ccccc1)c1ccncc1,inactive
5,CS(=O)(=O)c1ncc(Cl)c(C(=O)Nc2ccc3ccccc3c2)n1,inactive
6,CCCCN(CCCC)S(=O)(=O)c1ccc(NS(=O)(=O)c2ccc(NC(C)=O)cc2)cc1,"inconclusive [inhibitor, partial curve]"
7,COc1cccc(C(=O)/C(C#N)=N/Nc2cccc(-c3ccnc(C)n3)c2)c1,"inconclusive [inhibitor, single point]"
8,O=C(NCc1ccccc1Br)c1cccc2c1C(=O)c1ccc(-c3ccc(OC(F)(F)F)cc3)cc1S2(=O)=O,inactive
9,Cc1ccc(-c2cc(O)cc3sc(=O)oc23)cc1C,"inconclusive [inhibitor, partial curve]"
10,Cc1ccc(S(=O)(=O)N2CCCC(C(=O)NCCc3ccc4c(c3)OCO4)C2)cc1 (configuration not stated),"inconclusive [inhibitor, single point]"
11,O=C(c1ccco1)N1CCn2cccc2C1c1ccccc1 (configuration not stated),"inconclusive [inhibitor, partial curve]"
12,O=C(Nc1ncccn1)c1ccc([N+](=O)[O-])o1,"inconclusive [inhibitor, partial curve]"
13,COc1cc(S(=O)(=O)NC2CCCCC2C)ccc1Cl (configuration not stated),"inconclusive [inhibitor, partial curve]"
14,COc1ccc(-c2cc3c(c4c2ccn4C)C2CCC3O2)cc1OC (configuration not stated),"inconclusive [inhibitor, partial curve]"
15,CC#C[C@@H](CC)c1ccc2ccn(C)c2c1,"inconclusive [inhibitor, full curve]"
16,Clc1ccc(-c2ncc3ccccn23)c(Cl)c1,"inconclusive [inhibitor, partial curve]"
17,CCOC(=O)c1ccccc1OC(=O)Oc1ccccc1C(=O)OCC,"inconclusive [inhibitor, partial curve]"
18,COc1ccc(OC)c(NC(=O)COc2ccc3c(c2)CCC3)c1,"inconclusive [inhibitor, full curve, poor fit]"
19,COc1ccc(C(=O)C(=O)c2ccc(OCCO)cc2)cc1,"inconclusive [inhibitor, single point]"
20,O=C(c1ccccc1)N1N=C(c2ccc(F)cc2)CC1(O)C(F)(F)F (configuration not stated),"inconclusive [inhibitor, single point]"
21,N=C1/C(=C/c2cccn2Cc2ccc(F)cc2)C(=O)N=C2SC=CN12,inactive
22,COc1ccccc1CN(C)C(=O)COC(=O)c1cc(C)oc1C,inactive
23,CCCCC[C@H](C)N1C[C@@H](COCc2ccccc2)Oc2cc(N3CCC[C@H]3C(N)=O)ccc2S1(=O)=O,"inconclusive [inhibitor, partial curve]"
24,Cc1ccc(C(c2nnnn2C2CCCCC2)N(C)C2CCCCC2)cc1 (configuration not stated),"inconclusive [inhibitor, partial curve]"
